Here are results for 5 compounds from patent US6080791A, “Method of treating a viral condition by inhibiting membrane fusion” (priority 1992, dated 2000).

Structures are written as SMILES.

For the assay, the system named is intact virions and their receptors on red blood cell membranes. The experiment in a line: Hemagglutination (virus-cell binding). The protocol: Compounds inhibiting the conformational change of hemagglutinin were tested for their ability to inhibit fusion and infectivity. Assays measuring these processes depend on viral recognition of cellular receptors. To rule out the possibility that any observed inhibition in these experiments is due to inhibition of virus-cell binding, hemagglutination tests were performed with some of the compounds.
Serial 2-fold dilutions of inoculum in PBS were placed in a 96 well plate with V-shaped wells. An equal volume of 0.5% washed human red blood cells in PBS was added to each. Wells were covered and incubated at 4° C. After 4 hours the last well agglutinated was recorded.
Serial 2×dilutions of virus were done in a 2×solution of compound/PBS. Addition of the rbcs halved the compound concentration in each well.

With `COC(=O)C1C=CCC2C(=O)C=CC(=O)C12` (centres unmarked) [Compound 97, methyl 5,8-dioxo-1,4,4A,5,8,8A-hexahydro-1-naphthalenecarboxylate], the effect on hemagglutination result (0.1 mM) is recorded as “no effect on binding”.

For the compound `O=C1C=CC(=O)C2C3C=CC(C3)C12` (centres unmarked) [Compound 83K, 4A,5,8,8A-tetrahydro-5,8-methano-1,4-naphthoguinone], the effect on hemagglutination result (1 mM) is on record as “no effect on binding”.

For the compound `Oc1ccc(O)c2ccccc12` [Compound 110, 1,4-dihydroxynaphthalene], the effect on hemagglutination result (1 mM) is on record as “no effect on binding”.

In the case of `CC(C)(C)c1cc(O)ccc1O` [Compound 117, tert-butylhydroquinone], the effect on hemagglutination entry (10 μM) is “no effect on binding”.

Turning to `O=C(O)C1C=CCC2C(=O)C=CC(=O)C12` (centres unmarked) [Compound 91, 5,8-dioxo-1,4,4A,5,8,8A-hexahydro-1-naphthalene carboxylic acid], under “1 mM”, the effect on hemagglutination entry is given as “no effect on binding”.
